# Reference: PubChem BioAssay AID485281 (National Center for Advancing Translational Sciences (NCATS), 2010)
# Screen size: about 350,000 compounds; about 260 (0.074%) were called active. Inconclusive results, whose numbers are uncertain, are shown with a selection of clear calls. The call rests on the fitted dose curve; in most records, active means well fitted inhibition curve with a large enough effect; inconclusive means small, poorly fitted or top-dose-only effect; inactive means no such curve, though single readings can be large or run the other way. Where the call is inconclusive, the potency comes from a doubtful curve fit.
# Biological target: Ferritin light chain (Equus caballus) (UniProt P02791)
# UniProt P02791, sequence (P02791 whole entry, looked up): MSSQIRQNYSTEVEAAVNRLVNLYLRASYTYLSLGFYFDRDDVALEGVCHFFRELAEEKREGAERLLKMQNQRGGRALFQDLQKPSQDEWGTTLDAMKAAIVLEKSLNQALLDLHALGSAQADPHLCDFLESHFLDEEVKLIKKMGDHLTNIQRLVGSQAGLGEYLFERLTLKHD
# Assay: qHTS Assay for Identification of Novel General Anesthetics; further: nearly all actives have a fitted effect of over 20% in size
# Settings: apoferritin/1-aminoanthracene competitive binding, fluorescence; series mostly up to 77.5 µM
# How it was run: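 Concentration-response curves derived by four-parameter Hill fitting of normalized fluorescence, where compounds displaced 1-AMA from 10 uM horse apoferritin following a brief 10 min room-temperature incubation; propofol titration acted as positive control.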
# Potency means the concentration at half of the fitted maximal effect; tags describe the fitted curve by direction and shape.
row,Compound,Potency
1,O=C(COC(=O)C1CCCCC1)Nc1cc([N+](=O)[O-])ccc1F,"inconclusive: 20 µM [inhibitor, partial curve]"
2,CCn1cc(C(=O)NC(=S)Nc2ccccc2Br)cn1,"inconclusive: 25.1 µM [inhibitor, single point]"
3,O=C(CNCc1ccc(Cl)cc1)N1CCc2ccccc2C1,inactive
4,CN=C(NC#N)SCC(=O)c1ccc(Cl)cc1Cl,inactive
5,COCC1CCN(C(=O)c2cc(COc3cncc(Cl)c3)on2)C1 (stereo not drawn),inactive
6,COc1ccc(-c2cc(C(F)(F)F)nc(SCCC(=O)NCc3ccccc3)n2)cc1,inactive
7,NNC(=O)c1nc(-c2ccccc2)n2c1CCCCC2,inactive
8,Cc1ccc(Nc2nc(N)c([N+](=O)[O-])c(N3CCCC(C)C3)n2)cc1C (stereo not drawn),"inconclusive: 6.31 µM [inhibitor, single point]"
9,CCC(=O)Nc1ccc(NCc2ccc(-c3ccccc3)cc2)cc1,"inconclusive: 22.4 µM [inhibitor, partial curve]"
10,OC(COc1cccc(OCC(O)CN2CCOCC2)c1)CN1CCOCC1 (stereo not drawn),"inconclusive: 39.8 µM [inhibitor, single point]"
11,O=[N+]([O-])c1nn(-c2ccccc2)n(O)c1=NCc1ccc2c(c1)OCO2,"inconclusive: 22.4 µM [inhibitor, partial curve]"
12,N#CCCN/N=C(/Cc1nc2ccccc2[nH]1)c1cccc(Cl)c1,"inconclusive: 11.2 µM [inhibitor, partial curve]"
13,COc1ccc(Cc2nc3ccc(C(=O)N(C)C(C)c4ccon4)cc3o2)cc1 (stereo not drawn),"inconclusive: 44.7 µM [inhibitor, single point]"
14,COC(=O)c1ccc(COc2ccc3c4c(c(=O)oc3c2)CCC4)o1,inactive
15,Brc1cccc(OCCOCCn2ccnc2)c1,"inconclusive: 28.2 µM [inhibitor, partial curve]"
16,COc1ccc(C(=O)COC(=O)CNC(=O)c2ccc(OC)cc2)cc1,"inconclusive: 28.2 µM [inhibitor, partial curve]"
17,Cc1cc(C)cc(NC(=O)C(Cc2ccccc2)NS(=O)(=O)c2ccc3c(c2)c(=O)n(C)c(=O)n3C)c1 (stereo not drawn),"inconclusive: 3.98 µM [inhibitor, full curve]"
18,CC(C(=O)NCCCc1ccccc1)n1cccc1C(=O)c1ccccc1 (stereo not drawn),"inconclusive: 25.1 µM [inhibitor, single point]"
19,Nc1ccc(C(=O)OCC(=O)NC2CCCc3ccccc32)cc1[N+](=O)[O-] (stereo not drawn),active: 20 µM
20,CCCCCNC(=O)C1CC=CCC1C(=O)O (stereo not drawn),inactive
21,Cc1noc(C(=O)NCc2ccc(F)cc2)c1Cl,"inconclusive: 31.6 µM [inhibitor, partial curve]"
22,Cc1c(Br)cc(C(=O)N2CCCCCC2)c(C)c1C,active: 10 µM
23,O=S(=O)(NC1CC1)c1ccc(S(=O)(=O)N2CCc3ccccc32)cc1,"inconclusive: 35.5 µM [inhibitor, partial curve]"
24,COc1ccc(NC(=O)/C(Cl)=C(/Cl)S(=O)(=O)Cc2ccccc2)cn1,"inconclusive: 31.6 µM [inhibitor, single point]"
25,O=C(Nc1ccnn1C1CCN(CC2CC=CCC2)CC1)c1ccccc1Cl (stereo not drawn),inactive

row,Compound,Potency
1,CCCCOc1ccc(C(=O)Oc2cc(C)[nH]c(=O)c2[N+](=O)[O-])cc1,inactive
2,Cc1c(C(=O)NCC(c2ccc(Cl)cc2)N2CCOCC2)oc2ccccc12 (stereo not drawn),inactive
3,CCOc1ccc(N2CC(c3nc4ccccc4n3CCCOc3ccccc3)CC2=O)cc1 (stereo not drawn),inactive
4,CCC(=O)N1N=C(c2ccccc2)CC1c1ccccc1 (stereo not drawn),inactive
5,Fc1cc2nc(-c3ccncc3)[nH]c2cc1F,inactive
6,CC(NC(=O)/C(=C\c1cccc([N+](=O)[O-])c1)NC(=O)c1ccco1)C(=O)O (stereo not drawn),"inconclusive: 25.1 µM [inhibitor, partial curve]"
7,Cc1noc(C)c1COC(=O)Cc1ccc(Cl)cc1,"inconclusive: 35.5 µM [inhibitor, partial curve]"
8,c1ccc(CCNc2cnccn2)cc1,inactive
9,O=C(Nc1ccc(OCc2ccccc2)cc1)c1ccccc1,inactive
10,CCOc1cc(Cl)c(S(=O)(=O)NCCCn2ccnc2)cc1Cl,"inconclusive: 28.2 µM [inhibitor, single point]"
11,Cc1cccc(C(=O)Nc2cccc(Br)c2)c1[N+](=O)[O-],"inconclusive: 28.2 µM [inhibitor, partial curve]"
12,O=[N+]([O-])c1ccc(Sc2n[nH]c(-c3ccc(Cl)cc3Cl)n2)nc1,inactive
13,C[n+]1ccc(/C=C/c2cccs2)cc1,inactive
14,O=C(CSc1n[nH]c(-c2ccccc2)n1)NC1CCCCC1,"inconclusive: 31.6 µM [inhibitor, single point]"
15,O=C(NCc1ccc2c(c1)OCO2)c1ccc(COc2cc(Cl)ccc2Cl)o1,"inconclusive: 3.98 µM [inhibitor, partial curve]"
16,CN(Cc1ccccc1)C(=O)COC(=O)c1ccc(Cl)c(N)c1,"inconclusive: 35.5 µM [inhibitor, partial curve]"
17,Cc1ccc(NC(=O)CN2C(=O)NC(C)(c3ccc(Cl)cc3)C2=O)cc1S(=O)(=O)N1CCOCC1 (stereo not drawn),"inconclusive: 35.5 µM [inhibitor, single point]"
18,NC(=O)CSc1nnc(-c2ccc(S(=O)(=O)N3CCOCC3)cc2)n1Cc1ccccc1,"inconclusive: 31.6 µM [inhibitor, partial curve]"
19,CCN(CC)S(=O)(=O)c1ccc(NC(=O)COC(=O)c2ccc(Br)o2)cc1,"inconclusive: 15.8 µM [inhibitor, partial curve]"
20,CCC(C)c1ccc(NC(=O)COC(=O)C2=COCCO2)cc1 (stereo not drawn),"inconclusive: 39.8 µM [inhibitor, partial curve]"
21,COc1cccc(CNC(=O)C(=O)NCC(c2ccco2)S(=O)(=O)c2cccs2)c1 (stereo not drawn),"inconclusive: 0.891 µM [inhibitor, full curve, poor fit]"
22,O=C(COC(=O)COc1ccccc1[N+](=O)[O-])Nc1ccc(S(=O)(=O)N2CCCCC2)cc1,"inconclusive: 39.8 µM [inhibitor, partial curve]"
23,Cc1nnc(SCC(=O)c2cc(C)n(-c3ccc4c(c3)OCO4)c2C)s1,"inconclusive: 39.8 µM [inhibitor, single point]"
24,O=C(c1cc(COc2cccc(C(F)(F)F)c2)on1)N1CCC(Oc2cccnc2)CC1,"inconclusive: 35.5 µM [inhibitor, single point]"
25,CCn1cc(C(=O)N2CCN(c3ccc([N+](=O)[O-])cc3)CC2)c(=O)c2ccc(C)nc21,"inconclusive: 25.1 µM [inhibitor, single point]"

row,Compound,Potency
1,CCc1nnc(SCC(=O)NCCC2=CCCCC2)nc1CC,"inconclusive: 12.6 µM [inhibitor, partial curve]"
2,NC(=O)c1ccsc1NC(=O)COC(=O)C1CCCN1C(=O)c1cccs1 (stereo not drawn),"inconclusive: 35.5 µM [inhibitor, partial curve]"
3,CCC(C)C(=O)Nc1cc([N+](=O)[O-])ccc1Cl (stereo not drawn),"inconclusive: 31.6 µM [inhibitor, single point]"
4,O/N=C/c1ccc2ccccc2c1,"inconclusive: 14.1 µM [inhibitor, partial curve]"
5,O=C(COC(=O)/C=C/c1ccccc1Cl)NC(=O)Cc1ccccc1,"inconclusive: 20 µM [inhibitor, partial curve]"
6,CC1CCN(S(=O)(=O)c2ccc(Cl)cc2)CC1,inactive
7,Nc1cc2nc3ccccc3oc-2cc1=O,inactive
8,CCN(CC(=O)Nc1ccccc1Br)Cc1nc2ccccc2c(=O)[nH]1,"inconclusive: 39.8 µM [inhibitor, single point]"
9,COC(=O)CSc1snnc1-c1ccc(Cl)c(Cl)c1,"inconclusive: 31.6 µM [inhibitor, partial curve]"
10,CSc1nsc(SC)c1C(=O)NC(=O)Nc1cccnc1,inactive
11,O=C(CCCCn1c(=O)c2ccccc2n(Cc2ccccc2Cl)c1=O)NCCc1ccccc1,inactive
12,CC(C)(C)N1C(=O)c2ccccc2NC(=O)N1Cc1ccccc1,"inconclusive: 50.1 µM [inhibitor, single point]"
13,O=C(NCc1cccnc1)c1ccc(COc2ccc(Cl)cc2)cc1,"inconclusive: 35.5 µM [inhibitor, partial curve]"
14,CCOc1ccc(C(=S)NC2CCCCC2)cc1OCC,inactive
15,Cc1ncc(C[n+]2csc(CCOC(=O)CC3C4CC5CC(C4)CC3C5)c2C)c(N)n1 (stereo not drawn),"inconclusive: 25.1 µM [inhibitor, partial curve]"
16,Cc1cccc(-c2nc(NCCCN3CCOCC3)c3ccccc3n2)c1,"inconclusive: 50.1 µM [inhibitor, single point]"
17,O=[N+]([O-])c1ccccc1NCc1c(O)ccc2ccccc12,"inconclusive: 35.5 µM [inhibitor, partial curve]"
18,COC(=O)c1c(NC(NC(C)=O)C(Cl)(Cl)Cl)sc2c1CCCC2 (stereo not drawn),"inconclusive: 15.8 µM [inhibitor, partial curve]"
19,CCOC(=O)c1cc(-c2ccc(N)cc2)sc1N,inactive
20,CC1(C)C2CC=C(/C=N/n3cnnc3)C1C2 (stereo not drawn),"inconclusive: 39.8 µM [inhibitor, partial curve]"
21,O=C(NN=C(Cc1ccccc1)Cc1ccccc1)c1ccc(F)cc1,"inconclusive: 39.8 µM [inhibitor, single point]"
22,c1coc(-c2nc3ccccc3nc2-c2ccco2)c1,inactive
23,CC1(C(=O)Nc2cccc(Br)c2)Cc2ccccc2C(=O)O1 (stereo not drawn),"inconclusive: 10 µM [inhibitor, partial curve]"
